Test results reported in the supplement of paper PMC12067230.
The data scatter; read single values as rough.
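Also: [psi-pin-] Saccharomyces cerevisiae expressing SupN fusions, induced by 100 µM Cu2SO4, selected 7 d at 30 °C without adenine and uracil, scored by deep sequencing of output versus input.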

Test: amyloid nucleation score relative to library mode (yeast Sup35 reporter selection) (log enrichment difference); higher = more amyloid nucleation; sequences are the first 22 residues of the Bri2 peptide extended by up to 12 random residues
Settings: random library (experiment): 1;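 active = nucleation score significantly above 0 at FDR 0.05; inactive = not significantly above 0 or absent from output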
For EASNCFAIRHFENKFAVETLICCVPVYQFCSATR, the amyloid nucleation score was 7.86. For EASNCFAIRHFENKFAVETLICATKTYEHYGICV, the amyloid nucleation score was “inactive”. Sequence EASNCFAIRHFENKFAVETLICNLVVRKGNMVGT has an amyloid nucleation score of -0.265. For EASNCFAIRHFENKFAVETLICRQTSLFLPVMYG, the amyloid nucleation score was “inactive”. In the case of EASNCFAIRHFENKFAVETLICVRTR, the amyloid nucleation score is reported as “inactive”. In the case of EASNCFAIRHFENKFAVETLICVYGYGLRLQWTC, the amyloid nucleation score is reported as “inactive”. EASNCFAIRHFENKFAVETLICMTLNTFGELSER gave an amyloid nucleation score of 4.4. For EASNCFAIRHFENKFAVETLICGRRVGPKARTQR, the amyloid nucleation score was “inactive”. In the case of EASNCFAIRHFENKFAVETLICEFVEAVRSKCG, the amyloid nucleation score is reported as “inactive”. In the case of EASNCFAIRHFENKFAVETLICDATMLIGVACRA, the amyloid nucleation score is reported as “inactive”. EASNCFAIRHFENKFAVETLICQSHVRRQVLGDW showed an amyloid nucleation score of 3.32. EASNCFAIRHFENKFAVETLICNLVRTAVVFVPA gave an amyloid nucleation score of -0.0479. In the case of EASNCFAIRHFENKFAVETLICVRM, the amyloid nucleation score is reported as -0.138. In the case of EASNCFAIRHFENKFAVETLICLMEGQVY, the amyloid nucleation score is reported as -0.203. In the case of EASNCFAIRHFENKFAVETLICVNTNAFRCQVSV, the amyloid nucleation score is reported as “inactive”. With EASNCFAIRHFENKFAVETLICFLMNTTINTASQ the amyloid nucleation score was 5.95. For EASNCFAIRHFENKFAVETLICDDELAFRIRCCW, the amyloid nucleation score was “inactive”. With EASNCFAIRHFENKFAVETLICAQDPTKLCRPA the amyloid nucleation score was 5.13. In the case of EASNCFAIRHFENKFAVETLICVAVPRHGPDVAG, the amyloid nucleation score is reported as “inactive”. With EASNCFAIRHFENKFAVETLICMALNSRLRVHRR the amyloid nucleation score was “inactive”. In the case of EASNCFAIRHFENKFAVETLICWYPSHGPKDGLY, the amyloid nucleation score is reported as 4.03. EASNCFAIRHFENKFAVETLICLLGETP gave an amyloid nucleation score of -0.405. With EASNCFAIRHFENKFAVETLICTMTW the amyloid nucleation score was “inactive”. With EASNCFAIRHFENKFAVETLICMICALVCLYPVR the amyloid nucleation score was “inactive”. Work on EASNCFAIRHFENKFAVETLICGSRSRQQVKGEL yielded an amyloid nucleation score of -0.203. For EASNCFAIRHFENKFAVETLICLLVP, the amyloid nucleation score was -0.45. With EASNCFAIRHFENKFAVETLICCSELRSAGRWVS the amyloid nucleation score was “inactive”. For EASNCFAIRHFENKFAVETLICGVFVMDCRGCSW, the amyloid nucleation score was 8.26. For EASNCFAIRHFENKFAVETLICCTKC, the amyloid nucleation score was “inactive”. With EASNCFAIRHFENKFAVETLICVFYTSAYPPVTQ the amyloid nucleation score was “inactive”. In the case of EASNCFAIRHFENKFAVETLICWLLIDTGRRRLA, the amyloid nucleation score is reported as “inactive”. With EASNCFAIRHFENKFAVETLICEEVRESGAFVRV the amyloid nucleation score was “inactive”. Sequence EASNCFAIRHFENKFAVETLICDACDIPFGGSIR has an amyloid nucleation score of 2.73. With EASNCFAIRHFENKFAVETLICVQRKELCSSWMG the amyloid nucleation score was 3.05. For EASNCFAIRHFENKFAVETLICQTVDYYKWYCRL, the amyloid nucleation score was “inactive”. For EASNCFAIRHFENKFAVETLICYILFAYLAWSVK, the amyloid nucleation score was 2.64. For EASNCFAIRHFENKFAVETLICTITGWAIGPATA, the amyloid nucleation score was “inactive”. With EASNCFAIRHFENKFAVETLICREMLVATSGRVR the amyloid nucleation score was “inactive”. With EASNCFAIRHFENKFAVETLICLMSSLGTVPLCR the amyloid nucleation score was “inactive”. For EASNCFAIRHFENKFAVETLICVEAGPSM, the amyloid nucleation score was “inactive”. In the case of EASNCFAIRHFENKFAVETLICMHCDKFGNHDML, the amyloid nucleation score is reported as 3.92. In the case of EASNCFAIRHFENKFAVETLICARTSRAYRMRSW, the amyloid nucleation score is reported as “inactive”. In the case of EASNCFAIRHFENKFAVETLICFADALL, the amyloid nucleation score is reported as “inactive”. With EASNCFAIRHFENKFAVETLICRRSRCRALRVNT the amyloid nucleation score was “inactive”. With EASNCFAIRHFENKFAVETLICWDGKGLS the amyloid nucleation score was “inactive”. For EASNCFAIRHFENKFAVETLICARRMRVLTIARV, the amyloid nucleation score was “inactive”. With EASNCFAIRHFENKFAVETLICVSRYQHNHSLLW the amyloid nucleation score was “inactive”. With EASNCFAIRHFENKFAVETLICGERKMVIRECPN the amyloid nucleation score was “inactive”. EASNCFAIRHFENKFAVETLICMDEYGSLYRACR showed an amyloid nucleation score of 2.53. In the case of EASNCFAIRHFENKFAVETLICFCLIMLVSRCDG, the amyloid nucleation score is reported as “inactive”. With EASNCFAIRHFENKFAVETLICDCMATQLEAWVW the amyloid nucleation score was “inactive”. With EASNCFAIRHFENKFAVETLICPVNDNAVSFTSR the amyloid nucleation score was “inactive”. With EASNCFAIRHFENKFAVETLICGKRQIGMFGL the amyloid nucleation score was “inactive”.

Same assay, conditions: random library (experiment): 2
With EASNCFAIRHFENKFAVETLICGWMGRRNMNTCC the amyloid nucleation score was “inactive”. Sequence EASNCFAIRHFENKFAVETLICVMCCNYVVYIV has an amyloid nucleation score of 6.72. In the case of EASNCFAIRHFENKFAVETLICNRMVPFCNVRNP, the amyloid nucleation score is reported as “inactive”. In the case of EASNCFAIRHFENKFAVETLICFFEYRIS, the amyloid nucleation score is reported as “inactive”. In the case of EASNCFAIRHFENKFAVETLICLWPYTKWIHCFF, the amyloid nucleation score is reported as “inactive”. With EASNCFAIRHFENKFAVETLICRGTMLSVVSSHE the amyloid nucleation score was -0.445. EASNCFAIRHFENKFAVETLICFADNLIA showed an amyloid nucleation score of 4.09. For EASNCFAIRHFENKFAVETLICWNMQRSNIESKR, the amyloid nucleation score was “inactive”. For EASNCFAIRHFENKFAVETLICCIFASLCCIKNY, the amyloid nucleation score was “inactive”. For EASNCFAIRHFENKFAVETLICQSWAIQPLVRKE, the amyloid nucleation score was “inactive”. With EASNCFAIRHFENKFAVETLICRPKDE the amyloid nucleation score was “inactive”. In the case of EASNCFAIRHFENKFAVETLICRLTGSFARGLDP, the amyloid nucleation score is reported as “inactive”. For EASNCFAIRHFENKFAVETLICNRKCSLCFTVWS, the amyloid nucleation score was “inactive”. For EASNCFAIRHFENKFAVETLICILVIGDPLLDIW, the amyloid nucleation score was “inactive”. For EASNCFAIRHFENKFAVETLICGFVSRYITYQCS, the amyloid nucleation score was “inactive”. For EASNCFAIRHFENKFAVETLICYSSYTLM, the amyloid nucleation score was 1.17. In the case of EASNCFAIRHFENKFAVETLICLCMLILANDD, the amyloid nucleation score is reported as “inactive”. In the case of EASNCFAIRHFENKFAVETLICRKVWETGLWRLS, the amyloid nucleation score is reported as 4.55. In the case of EASNCFAIRHFENKFAVETLICVLVKWNASVCCV, the amyloid nucleation score is reported as “inactive”. For EASNCFAIRHFENKFAVETLICLVRVRPSESYCK, the amyloid nucleation score was 0.519. For EASNCFAIRHFENKFAVETLICCPVVYSGANS, the amyloid nucleation score was 6.51. For EASNCFAIRHFENKFAVETLICITSLG, the amyloid nucleation score was “inactive”. EASNCFAIRHFENKFAVETLICVVSWEKSLPRWQ showed an amyloid nucleation score of -0.14. With EASNCFAIRHFENKFAVETLICYLVILYYFTGLT the amyloid nucleation score was “inactive”. With EASNCFAIRHFENKFAVETLICGFICWLPVIGRV the amyloid nucleation score was “inactive”. EASNCFAIRHFENKFAVETLICYPFN gave an amyloid nucleation score of 6.38. Sequence EASNCFAIRHFENKFAVETLICYCSHLRRNGQHT has an amyloid nucleation score of 3.72. For EASNCFAIRHFENKFAVETLICLCGSYQLYNYMP, the amyloid nucleation score was 5.63. For EASNCFAIRHFENKFAVETLICVCRNLFLELSTA, the amyloid nucleation score was “inactive”.

Same assay, conditions: random library (experiment): 3
With EASNCFAIRHFENKFAVETLICRERADKMLRRGW the amyloid nucleation score was “inactive”. In the case of EASNCFAIRHFENKFAVETLICTLLMKAEMCVCA, the amyloid nucleation score is reported as “inactive”. In the case of EASNCFAIRHFENKFAVETLICVPIRRCMRRAGE, the amyloid nucleation score is reported as “inactive”. EASNCFAIRHFENKFAVETLICGYVNIHL gave an amyloid nucleation score of 8.54. Work on EASNCFAIRHFENKFAVETLICTYLGLRCGVVVR yielded an amyloid nucleation score of 0.405. For EASNCFAIRHFENKFAVETLICNRGVI, the amyloid nucleation score was “inactive”. With EASNCFAIRHFENKFAVETLICECIWIRIVKDGE the amyloid nucleation score was “inactive”. With EASNCFAIRHFENKFAVETLICWCWEASAWRG the amyloid nucleation score was -0.0354. For EASNCFAIRHFENKFAVETLICGDFVMWYAGSVA, the amyloid nucleation score was 6.48. EASNCFAIRHFENKFAVETLICCSSGCSTQERSG gave an amyloid nucleation score of 7.84. For EASNCFAIRHFENKFAVETLICLVEGMCWLRIS, the amyloid nucleation score was “inactive”. With EASNCFAIRHFENKFAVETLICARCATYVVLFGY the amyloid nucleation score was “inactive”. In the case of EASNCFAIRHFENKFAVETLICTVSMLRFVFRCR, the amyloid nucleation score is reported as 5.03. With EASNCFAIRHFENKFAVETLICVIEMRHQKCS the amyloid nucleation score was “inactive”. For EASNCFAIRHFENKFAVETLICVMPGCIYAIDMV, the amyloid nucleation score was “inactive”. In the case of EASNCFAIRHFENKFAVETLICHCWKCYVHGTGM, the amyloid nucleation score is reported as “inactive”. With EASNCFAIRHFENKFAVETLICVCTVDQWFTTRD the amyloid nucleation score was 5.04. In the case of EASNCFAIRHFENKFAVETLICGATRLNMEENGS, the amyloid nucleation score is reported as “inactive”. In the case of EASNCFAIRHFENKFAVETLICILWR, the amyloid nucleation score is reported as “inactive”. For EASNCFAIRHFENKFAVETLICRWHVKRWLLRGG, the amyloid nucleation score was “inactive”. With EASNCFAIRHFENKFAVETLICPCSLVWHCDFAA the amyloid nucleation score was 7.55. In the case of EASNCFAIRHFENKFAVETLICPPNKESPRNGHG, the amyloid nucleation score is reported as “inactive”. With EASNCFAIRHFENKFAVETLICRALYWSGSQRGP the amyloid nucleation score was “inactive”. For EASNCFAIRHFENKFAVETLICLRFGKARKRRSR, the amyloid nucleation score was “inactive”. For EASNCFAIRHFENKFAVETLICQGKGILRRECHE, the amyloid nucleation score was “inactive”. With EASNCFAIRHFENKFAVETLICYITLCVLLNCML the amyloid nucleation score was “inactive”. With EASNCFAIRHFENKFAVETLICPTVELVTLVYEG the amyloid nucleation score was “inactive”. With EASNCFAIRHFENKFAVETLICYTRRNVFLSP the amyloid nucleation score was “inactive”. With EASNCFAIRHFENKFAVETLICRHPGVGREER the amyloid nucleation score was “inactive”. For EASNCFAIRHFENKFAVETLICTCRTWLLVPCRR, the amyloid nucleation score was “inactive”. EASNCFAIRHFENKFAVETLICCSGH showed an amyloid nucleation score of 7.29. Sequence EASNCFAIRHFENKFAVETLICGLQ has an amyloid nucleation score of 7.59. In the case of EASNCFAIRHFENKFAVETLICLVLRVWKCSWTL, the amyloid nucleation score is reported as 0. With EASNCFAIRHFENKFAVETLICKAA the amyloid nucleation score was “inactive”. EASNCFAIRHFENKFAVETLICCAINPVTIRQRG gave an amyloid nucleation score of 8.71. In the case of EASNCFAIRHFENKFAVETLICVAFTTTLSDGEG, the amyloid nucleation score is reported as “inactive”. For EASNCFAIRHFENKFAVETLICFMYRLVWTHVCR, the amyloid nucleation score was 5.33.
